Source: ChEMBL document CHEMBL1201862, “PubChem BioAssay data set” (2004)
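Compound exposure: 48 hours, 5 concentrations, 96-well plates. The concentration for 50% growth inhibition is given as GI50.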 The source made the active and inactive calls. Rule as the data show it: active = GI50 up to about 1.1 µM and inactive = higher.

The molecules below were run on NCI-H322M (assay: growth of human tumour cells (NCI), 48 h).

Row | SMILES | GI50
1 | Cc1cc(Cl)ccc1NC(=O)/C(=N\NC(C)(C)C)C(C#N)c1nc(-c2ccc([N+](=O)[O-])cc2)cs1 (stereo not given) | inactive: > 100 µM
2 | Cc1c2ccccc2c(C)c2c3c(ccc12)C(=O)C=CC3=O | inactive: > 85.5 µM
3 | O=C(O)COc1ccc2c3c1C(=O)CCC3CO2 (stereo not given) | inactive: > 100 µM
4 | CCN(CC)c1ccc2c(c1)Oc1ccc(N(CC)CC)cc1C21Oc2ccccc2-c2c1c1ccccc1n2CC (stereo not given) | inactive: 3.66 µM
5 | CC(C)(C)N1CC2(CCCCC2)C1=O | inactive: > 100 µM
6 | COC(=O)c1ccccc1/C=C1\Cc2ccc3ccccc3c2C1C (stereo not given) | inactive: 72.9 µM
7 | OCC1C(/C=C/c2ccoc2)ON2CCCC12 (stereo not given) | inactive: > 100 µM
8 | COP(=O)(CC(=O)C1OC(C)(C)OC1C(O)COCc1ccccc1)OC (stereo not given) | inactive: > 100 µM
9 | CCOC(=O)C1COc2cc(-c3cc(=O)c4ccccc4o3)ccc2O1 (stereo not given) | inactive: > 100 µM
10 | O=C1Sc2cc3ccccc3cc2C(=O)Sc2cc3ccccc3cc21 | inactive: > 100 µM
11 | COC1/C=C\OC2(C)Oc3c(C)c(O)c4c(O)c(c(/C=N\OCCCc5ccccc5)c(O)c4c3C2=O)NC(=O)/C(C)=C\C=C/C(C)C(O)C(C)C(O)C(C)C(OC(C)=O)C1C (stereo not given) | inactive: 10.1 µM
12 | CC1=C(c2cc(C(=O)Nc3cccc(C(F)(F)F)c3)nc(NC#N)n2)Sc2ccccc2N1 | inactive: > 100 µM
13 | COC(=O)/C(=N\NC(N)=O)C(C(=O)C(=O)Nc1ccccc1OC)c1nc2ccc([N+](=O)[O-])cc2nc1O (stereo not given) | inactive: > 100 µM
14 | CC(C(=O)N1C(=O)N(C(=O)C(C)C(O)c2ccccc2)C(c2ccccc2)C1c1ccccc1)C(O)c1ccccc1 (stereo not given) | inactive: 22.7 µM
15 | O=C1OC(c2ccc(Cl)cc2)=N/C1=C\c1ccccc1 | inactive: > 100 µM
16 | O=S1(=O)CCC2=CC(C(F)(F)F)=CC(C(F)(F)F)=CN21 | inactive: 2.51 µM
17 | NN=C(CC(O)(C(F)(F)Cl)C(F)(F)Cl)CC(O)(C(F)(F)Cl)C(F)(F)Cl | inactive: 6.01 µM
18 | O=C(Nc1ccccc1SC(/C=C/NNC1=NN=C(c2ccccc2)C(c2ccccc2)N1)c1ccccc1)c1ccc(Cl)cc1Cl (stereo not given) | inactive: 50.5 µM
19 | COc1ccc(/C=N/CCC/N=C/c2ccc(OC)cc2O)c(O)c1 | inactive: 32 µM
20 | CN(C)c1ccc(/C=N\N2C(=O)c3ccccc3C2=O)cc1 | inactive: > 100 µM
21 | Nc1nc2cc(COc3ccc(C(=O)O)cc3)ccc2nc1-c1ccccc1 | inactive: > 10 µM
22 | C/C(=N\NC(=S)N1CCCC1)c1nc2cccnc2[nH]1 | active: 0.375 µM
23 | COC(=O)c1ccc(Oc2nc3ccccc3nc2-c2cccs2)cc1 | inactive: > 100 µM

Row | SMILES | GI50
24 | CCCCCCCCCCC1OC([C@@H](O)CC[C@H](O)C2CC[C@@H](CCCCCCCC(O)CC3=CC(C)OC3=O)O2)CCC1O (stereo not given in full) | inactive: 10.1 µM
25 | O=C(O)CN(CC(=O)O)Cc1cc(C#Cc2ccc(C#Cc3ccccc3)cc2)cc(CN(CC(=O)O)CC(=O)O)n1 | inactive: 21.1 µM
26 | C/C(=C1\N=C(c2ccccc2)OC1=O)c1ccccc1 | inactive: > 100 µM
27 | CC1=CC(=O)c2cccc(O)c2C1=O | inactive: 18.3 µM
28 | CC(=O)n1cc(OP(=O)(Oc2ccccc2)Oc2ccccc2)c2ccccc21 | inactive: 76.9 µM
29 | Cc1cn(C2CC(N=[N+]=[N-])C(CO)O2)c(=O)n(CCCCBr)c1=O (stereo not given) | inactive: > 100 µM
30 | CC1CC(C)C(C#N)N(C)c2ccccc21 (stereo not given) | inactive: > 100 µM
31 | C#CC[C@@]12CC(=O)C[C@@H]1CCC1(C2)OCCO1.C#CC[C@]12CC(=O)CC[C@H]1CC(=O)C2 | inactive: > 100 µM
32 | CN(C)CCN(C)CCC(=O)/C=C/c1ccccc1 | inactive: > 100 µM
33 | CO/N=C(\C(=O)Nc1cncs1)c1csc(NC(c2ccccc2)(c2ccccc2)c2ccccc2)n1 | inactive: > 10 µM
34 | Cc1cc(N(CCC#N)CCC#N)ccc1C(/N=N\c1ccc([N+](=O)[O-])cc1)=N\NC(=O)c1cc(Cl)ccc1O | inactive: 26.2 µM
35 | C[N+](C)(C)CC(CC(=O)[O-])C1CC1 (stereo not given) | inactive: > 100 µM
36 | O=[N+]([O-])c1cc(/N=N/c2c(O)ccc3cc(S(=O)(=O)O)ccc23)c(O)c([N+](=O)[O-])c1 | inactive: > 100 µM
37 | COc1ccc(NS(=O)(=O)c2ccc(/N=C3\C=C(Nc4ccc(S(=O)(=O)Nc5ccc(OC)nn5)cc4)C(=O)c4ccccc43)cc2)nn1 | inactive: 17.8 µM
38 | Cc1ccc(Nc2cc(=O)[nH]c(=S)[nH]2)cc1 | inactive: > 100 µM
39 | Nc1c(S(=O)(=O)O)cc(S(=O)(=O)O)c2ccc(/N=N/c3ccccc3)c(O)c12 | inactive: > 100 µM
40 | O=c1ncccn1C1OC(CO)C(O)C1O (stereo not given) | inactive: > 100 µM
41 | CN(C)CCn1c(=O)c2ccc3c4c(nn3CCN(C)C)c3cc(N)ccc3n(c1=O)c24 | active: < 0.01 µM
42 | O=C(O)C(Cc1c[nH]c2ccccc12)N1C(=O)c2ccccc2C1=O (stereo not given) | inactive: > 100 µM
43 | Oc1cc2c3c(c1)c1cc4c(cc1c[n+]3CC2)OCO4 | inactive: 3.61 µM
44 | CC1=CC(=O)[C@@H](O)[C@]2(C)[C@H]3[C@@]4(O)OC[C@]35[C@H]([C@@H](C)[C@H]4O)[C@@H](OC(=O)C(C)(C)CO)C(=O)O[C@@H]5C[C@@H]12 | inactive: 4.24 µM
45 | CCCN1C(=O)CNC(=O)c2[nH]cnc21 | inactive: > 100 µM
